The campaign covered roughly 48,000 compounds. About 1,200 (2.5%) were called active. Another 2% or so got no clear call; they are omitted.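 How the source made its calls: active means activation of at least 60% and not above a set upper limit (about 1 call in 100 departs from these limits); inconclusive means activation of 40% to 60%, or above that upper limit; inactive means activation under 40%.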 The list shows a part of the results.

The results in this text go back to PubChem BioAssay AID1346428 (National Center for Advancing Translational Sciences (NCATS), 2018).

This assay concerns the target Probable G-protein coupled receptor 32 (Homo sapiens) (UniProt O75388). Put plainly: qHTS for Agonists of Human Resolvin D1 Receptor DRV1. The settings on record: CHO-K1 GPR32 beta-arrestin PathHunter luminescence, 90 min; at 76.9 µM; hits give high values; zero percent set by DMSO-only wells. An excerpt: Endogenous resolution of inflammation is known to be transduced through various GPCRs and their natural mediators of lipid nature. Resolvin D1 (RvD1) is one of the active players in resolution of acute inflammation through regulation of anti-inflammatory pathways; it is known to enhance phagocytosis of human macrophages, limits neutrophils infiltration, etc. […] The search for GPR32-activating small molecules with anti-inflammatory effects similar to its natural omega-3 derivative ligand in order to use them as research tools for further studies of inflammation and its resolution was the goal of this screening project. For primary screening assay, we used CHO-K1 GPR32 beta-arrestin cell line (DiscoveRx, #93-0321C2A) and the PathHunter(R) beta-Arrestin Assay (DiscoveRx) which measures recruitment of beta-arrestin to the GPR32 and generates chemiluminescent signal. These engineered cells stably transfected with GPR32 co-express GPR32-fused small 42-amino acid fragment of beta-Gal called ProLinktrade mark, and […] -tagged beta-Arrestin fusion protein. When GPR32 is activated by a ligand, it stimulates binding of beta -Arrestin to ProLink-tagged GPR32, and two parts of beta-Gal complement forming a functional enzyme. Upon substrate (PathHunter(R) Detection reagent) addition, beta-Gal hydrolyzes it and generates a chemiluminescent signal.
Sequence of UniProt O75388 (O75388 whole entry, looked up): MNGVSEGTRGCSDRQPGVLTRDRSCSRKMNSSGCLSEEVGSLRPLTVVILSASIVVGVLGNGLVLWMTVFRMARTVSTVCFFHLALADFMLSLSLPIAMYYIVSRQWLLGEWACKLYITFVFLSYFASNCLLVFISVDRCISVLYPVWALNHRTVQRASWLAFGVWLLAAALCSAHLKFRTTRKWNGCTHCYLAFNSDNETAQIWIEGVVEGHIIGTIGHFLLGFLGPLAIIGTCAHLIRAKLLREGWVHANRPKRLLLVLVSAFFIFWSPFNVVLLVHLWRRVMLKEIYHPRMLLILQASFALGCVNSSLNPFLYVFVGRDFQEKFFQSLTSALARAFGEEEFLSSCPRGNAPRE
The cells were thawed and plated in thawing media containing F-12 HAM (Invitrogen, #11765-054), 10% FBS (Invitrogen, #10082), 1x Glutamine, and 1x Pen/Strep onto the 175-mm flask for 24 hours. Then, thawing media was replaced with Growth media which contains 800microg/mL Geneticin (Invitrogen, #10131) and 300microg/mL Hygromycin B (Invitrogen, #10687) in addition to described above. For the assay, the cells were harvested at ~80% confluent stage with Cell Dissociation buffer (Gibco, #13151), and seeded at 2,500 cells/ 3microL/well in assay media (PathHunter(R) Cell Plating Reagent, DiscoverX, #93-0563R1B) using MultiDrop Combi dispenser (Thermo Scientific, Logan, UT) onto white solid bottom tissue culture-treated 1536-well plates (Greiner # 789173-F) and allowed to attach overnight at 37 degrees C, 95% humidity, 5% CO2, . Next, 23nL/well of compound solutions in DMSO were added with a Pin Tool (Kalypsis, San Diego, CA) to the assay plates. As the basal control (EC0), 23 nL/well of DMSO was used on each plate. The cells were incubated in the presence of compounds or DMSO for 90 minutes at 37 degrees C, 5% CO2. Subsequently, 1.5microL/well of PathHunter(R) Detection Reagent prepared per the manufacturer's instructions was added to the assay plates with BioRAPTR FRDtrade mark dispenser (Beckman Coulter, San Francisco, CA) and incubated for 1 hour at ambient temperature prior to the measurement of the luminescent signal on ViewLux(R) uHTS Microplate Imager (Perkin Elmer, Waltham, MA).
(qHTS replaces the single test concentration by a dilution series.)
For `COc1cc(NC(=O)CCc2nc(-c3cccs3)no2)cc(OC)c1OC`, the activation is inactive: 40.9%. The value for `Cc1ccc2c(=O)cc(C(=O)Nc3cccc(Cl)c3C)oc2c1C` was inactive: -6.76%; that for `CCCCCOC(=O)CSc1ncnc2c1sc1nc(N3CCOCC3)c3c(c12)CCCC3` was inactive: -5.45%; that for `COc1ccc(OCCCCn2c(-c3ccc(Cl)cc3)nc3ccccc3c2=O)cc1` was inactive: -4.52%.

`Cn1c(=O)c2c(-c3ccccc3Cl)n(-c3cc(Cl)ccc3O)cc2n(C)c1=O`: the activation is inactive: -12.2%.

On to `Cc1ccc(C(=O)CC2(O)C(=O)N(CCc3ccccc3)c3ccc(Cl)cc32)cc1` (stereo not given), for which the activation was inactive: 16.2%. The value for `Cc1cc(Nc2cccc(C)c2C)n2cnnc2n1` was inactive: -3.38%. For `COCCn1ccc2c(OCC(=O)Nc3cccc(OC)c3)cccc2c1=O`, the activation is active: 72.7%. To `COc1ccc(Nc2ncc(C(=O)N3CCN(c4cccc(Cl)c4)CC3)c3ccccc23)cc1` belongs inactive: 37.6%. The value for `Cc1ccc(C)c(-n2c(CCC(=O)O)ccc2-c2ccc(Cl)cc2)c1` was inactive: -6.15%; that for `Cc1cccc(NC(=O)CSc2nc(-c3ccccc3)cn2-c2ccccc2)c1C` was inactive: -22.6%; that for `CC(C)CC(C(=O)NCc1ccc(F)cc1)N1Cc2ccccc2C1=O` (stereo not given) was inactive: -13.6%. The value for `CCOc1ccc(-c2nc(SCC(=O)Nc3ccc(C)c(C)c3)n3[nH]c(=O)cc3n2)cc1` was inactive: 8.39%. Take `Cc1ccc(C(C)C)c(OCC(=O)Nc2ccc(C(=O)OC3CCCCC3)cc2)c1`: the activation is inactive: -6.9%. The value for `CCc1ccc2ncc3c(-c4ccc(F)cc4)nn(CC(=O)NCc4ccccc4)c3c2c1` was inactive: 2.73%; that for `Cc1nc(C)c(-c2ccc(SCC(=O)Nc3ccc(C)c(F)c3)nn2)s1` was inactive: 40.9%.

As for `COc1ccc(CNC(=O)c2c(O)nc3cc(C)ccn3c2=O)cc1`, the activation was inactive: -0.399%. To `Cc1ccc(/C=C/c2onc(C)c2S(=O)(=O)N2CCC(C(=O)NCc3ccc(C)o3)CC2)cc1` belongs inactive: -20%; to `CCc1nnc(SCc2nc(-c3ccc(OC)c(OC)c3)oc2C)c2cc3sc(C)cc3n12`, inactive: -8.02%. To `COc1cccc(CNC(=O)Cc2ccc(NC(=O)N3CCCCc4ccccc43)cc2)c1OC` belongs inactive: 13.5%; to `CC(=O)N1CCc2c(sc3c2c(=O)n(-c2ccccc2)c(=O)n3CC(=O)Nc2ccccc2C)C1`, inactive: -10.8%; to `CCOc1ccc(NS(=O)(=O)c2ccc3[nH]cc(C(=O)N(C)Cc4ccccc4)c(=O)c3c2)cc1`, inactive: -10.7%. `COc1ccc2c(c1)CC(NC(=O)Nc1c(C)cc(C)cc1C)CO2` (stereo not given): the activation is inactive: -6.51%. Turning to `Cc1ccccc1S(=O)(=O)Cc1ccc(C(=O)NC2CCCCC2)o1`, the activation is inactive: 16.2%. To `COc1ccc(NC(=O)c2oc3ccccc3c2NC(=O)c2cc3ccccc3o2)cc1` belongs inactive: 45.3%. To `CCOc1ccc(NC(=O)CSc2nnc3scc(-c4ccc(Cl)cc4)n23)cc1` belongs inactive: 15.9%; to `CCOc1cccc2cc(-c3nc4ccc(C(=O)O)cc4[nH]3)c(=O)oc12`, inactive: -0.717%.

As for `Cc1cccc(-n2c3nc(=O)[nH]c(=O)c-3cc3c(Cl)cccc32)c1C`, the activation is inactive: 25%. With `COc1cc2oc(=O)c(CC(=O)N3CCCCC3)c(C)c2cc1Cl`, the activation was inactive: 2.02%. To `COc1ccc(C)cc1S(=O)(=O)N1CCN(c2cccc(Cl)c2)CC1` belongs inactive: -8.6%; to `CCOC(=O)c1ccc2oc(=O)n(Cc3ccccc3)c2c1`, inactive: -14%; to `CC(=O)Nc1ccc(C2Sc3ccccc3NC3=C2C(=O)c2ccccc23)cc1` (stereo not given), inactive: -56.2%. To `O=C(NCC(c1ccco1)S(=O)(=O)c1cccs1)c1ccc(F)cc1` (stereo not given) belongs inactive: -8.81%; to `Cc1ccc(C)c(CN2C(=O)c3ccccc3S(=O)(=O)c3ccc(C(=O)N4CCCCCC4)cc32)c1`, inactive: -16.2%. To `Cc1cc(C)c(NC(=O)c2cc3sc(Cl)cc3n2C)c(C)c1` belongs inactive: -9.39%; to `COc1ccccc1CNC(=O)c1ccc(N2CCCC2)c(NC(=O)NCCC(C)C)c1`, inactive: -24.2%. As for `O=C(COc1ccc(F)cc1)Nc1ccc2nc(SCC(=O)N3CCc4ccccc43)sc2c1`, the activation is inactive: -6.36%.

In the case of `COc1cccc(NC(=O)CSc2ncc(S(=O)(=O)c3ccc(C)c(C)c3)c(=O)[nH]2)c1`, the activation was inactive: 9.69%. With `Cc1oc2ncn(CC(C)C)c(=O)c2c1C(=O)NCCCN1CCCCC1`, the activation was inactive: -3.44%. To `Cc1ccccc1OCC(=O)OCc1cc(=O)n2nc(C3CCCCC3)sc2n1` belongs inactive: -12%; to `CC(=O)c1ccc(N2CCN(S(=O)(=O)c3ccc(-c4cc(C(F)(F)F)on4)s3)CC2)cc1`, inactive: -0.311%; to `CSc1cccc(NC(=O)Cn2c3ncccc3c(=O)n2-c2ccc(C)cc2)c1`, inactive: -12.7%. To `Cc1csc2nc(COc3ccccc3NC(=O)c3ccco3)cc(=O)n12` belongs inactive: 2.18%; to `CCc1c(-c2ccccc2)nc2ccccc2c1C(=O)NCCc1ccccc1`, inactive: -24.9%; to `Nc1nc(OCc2ccccc2)c2[nH]cnc2n1`, inactive: 13.1%. For the compound `Cc1ccc(-n2nnnc2CNC(=O)c2ccccc2S(C)(=O)=O)cc1C`, the activation was inactive: 1.94%. The value for `COc1ccc(-c2cn3nc(N4CCCC(C(=O)Nc5ccc(C)c(C)c5)C4)sc3n2)cc1` (stereo not given) was inactive: -14.5%. To `FC(F)(F)c1cc(-c2ccccc2)nc2cc(-c3ccc(Br)cc3)nn12` belongs inactive: 43.2%; to `O=C(CCC(=O)OCC(=O)c1ccc(Cl)cc1)Nc1ccc(Oc2ccccc2)cc1`, inactive: -41%; to `COC(=O)c1c(SCC(=O)Nc2cc(C)cc(C)c2)[nH]c2ccccc2c1=O`, inactive: 42.1%. On to `CCc1ccc2occ(CC(=O)Nc3c(C(=O)Nc4ccc(C)cc4)oc4ccccc34)c2c1`, for which the activation was inactive: 1.67%. To `Cc1ccc(C(=O)n2nc(C)c(S(=O)(=O)N3CCOCC3)c2C)cc1` belongs inactive: 2.63%; to `COc1cccc(-c2nn(C)c3sc(C(=O)NCCc4ccc(Cl)cc4)cc23)c1`, inactive: -0.636%. To `Cc1cc(S(=O)(=O)Nc2ccc(-c3ccc(N4CCCCC4)nn3)cc2)c(C)cc1Cl` belongs inactive: -0.403%; to `Cc1ccc(CSc2nc(-c3cccs3)ccc2C#N)cc1`, inactive: -10.9%. To `CC(C)c1cnc2c(c1SCC(=O)Nc1ccccc1C(F)(F)F)c(=O)n(C)c(=O)n2C` belongs inactive: -5.92%. With `COc1ccc(-n2nc(C(=O)Nc3ccccc3OC)c3c4ccccc4n(C)c3c2=O)cc1Cl`, the activation is inactive: -9.87%. The value for `Cc1cccc(N2CCN(c3cc(C)nc4c(-c5ccc(Cl)cc5)c(C)nn34)CC2C)c1` (stereo not given) was inactive: 6.1%; that for `Cc1nnc(SCc2ccc(Cl)cc2)c2cc3occc3n12` was inactive: 9.85%.

Consider `CCOc1ccc(NC(=O)NCCCN2CCN(c3ccc(F)cc3)CC2)cc1`, for which the activation was inactive: 9.38%. To `O=c1[nH]c(=O)c2[nH]c(=O)[nH]c2[nH]1` belongs inactive: 0.0854%.

Consider `CC(C)Oc1ccc(CNC(=O)CN2C(=O)CCc3cc(S(=O)(=O)N4CCCCC4)ccc32)cc1`, for which the activation was inactive: 7.23%.

Turning to `Cc1cc(C)cc(N2C(=O)CSC23C(=O)N(CC(=O)NCCc2ccccc2)c2ccccc23)c1` (stereo not given), the activation was inactive: 5.52%. To `Cc1ccc(CSCc2ccc(C(=O)NCCc3ccc(Cl)cc3)o2)cc1` belongs inactive: -12.3%; to `COc1ccc(NC(=O)CCS(=O)(=O)c2cccc3nonc23)cc1Cl`, inactive: -1.27%; to `CN(C(=O)c1ccc2c(c1)N(Cc1cccc(Cl)c1)C(=O)c1ccccc1S2=O)C1CCCCC1` (stereo not given), inactive: -32%. To `CCOC(=O)C1=C(CS(=O)(=O)c2ccc(C)cc2)NC(=O)NC1c1ccc(C(C)C)cc1` (stereo not given) belongs inactive: 28.7%.

Regarding `Cc1oc2ncn(C)c(=O)c2c1C(=O)NC(C)c1ccccc1` (stereo not given), the activation was inactive: -0.68%. The value for `COc1ccccc1NCc1cccn1-c1nnc(N2CCOCC2)s1` was inactive: 8.39%.

`Cc1ccc(C)c(CN2C(=O)CSc3ccc(C(=O)NCc4ccc(F)cc4)cc32)c1`: the activation was inactive: 18%.

Turning to `O=C(CSC1=Nc2ccccc2N=C(c2ccc(F)cc2)C1)NCc1ccc(F)cc1`, the activation is inactive: -27.6%. The value for `CCS(=O)(=O)N1CCc2cc(C(=O)Nc3cccc(Cl)c3C)ccc21` was inactive: 47.2%; that for `O=C(c1cccc(Br)c1)N1CCN(Cc2cc(=O)n3nc(-c4ccccc4)sc3n2)CC1` was inactive: -0.857%. The value for `Cc1ccc(CSc2nc3cccnc3n2Cc2ccc(C(=O)NCCc3ccccc3)cc2)cc1` was inactive: 15.7%; that for `CCC(=O)N1c2nc(-c3ccco3)nn2C2(CCCCC2)[C@@H]2CCCC[C@@H]21` was inactive: -28.8%; that for `COc1ccc(N2CCN(C(CNC(=O)C(=O)NCCCN(C)C)c3cccnc3)CC2)cc1` (stereo not given) was inactive: 3.68%. To `CCOc1c(Cl)cc(Cl)cc1CNCCSc1nnnn1C` belongs inactive: 19.9%. With `O=C(Nc1cc2c(cc1C(=O)c1ccccc1Cl)OCCO2)c1ccc(Br)cc1`, the activation is inactive: -10.5%.

With `Cc1nc2c(-c3ccccc3)c(C)nn2c(C)c1CCC(=O)NCc1ccccc1Cl`, the activation was inactive: -3.85%.

`Cc1cccc(CNC(=O)C2CCN(c3nnc(-n4c(C)ccc4C)s3)CC2)c1`: the activation is inactive: -13.5%. To `Cc1ccc(N2CC(NC(=O)c3ccc(S(=O)(=O)N4CCOCC4)cc3)CC2=O)cc1C` (stereo not given) belongs inactive: -5.58%; to `Cc1cc2oc(=O)c(CC(=O)O)c(C)c2c2occ(-c3ccc(F)cc3)c12`, inactive: -3.17%.

As to `Cc1cccc(-c2noc(CN(C(=O)c3ccccc3Cl)C(C)C)n2)c1`, the activation was inactive: -10.1%. To `O=C(c1ccc2c(c1)OCCO2)N(Cc1cccnc1)c1nc2c(F)cccc2s1` belongs inactive: -20.1%; to `Cn1c(C(=O)NCCc2ccccc2)cc2c(=O)n3ccccc3nc21`, inactive: -7.83%.
